According to US20220175920A1 (INSERM INSTITUT NATIONAL DE LA SANTE ET DE LA RECHERCHE …, published 2022):

How the values were obtained:
[1] = target: T1, human CD40 on cells (B cells, MDDCs, stably transfected CHO cells) (human, UniProt P25942 21-277); assay: cell-based or functional assay
[2] = target: human CD40 ectodomain fused to FAS transmembrane and intracellular domains, on CHO cells (human); assay: cell-based or functional assay
[3] = target: T1, human CD40 on cells (B cells, MDDCs, …); assay: cell-based or functional assay; remark: listed apart in the source
[4] = target: T2, cohesin-human CD40 ectodomain protein (P3398) (human); assay: SPR, mAb immobilized on protein A/G surface, soluble human CD40 ectodomain in the liquid phase
T2 construct: SPR analyte; also called soluble human CD40 ectodomain; liquid phase soluble human CD40 ectodomain; not shown: cohesin domain of P3398 and its junction to CD40

T1 sequence (P25942 21-277): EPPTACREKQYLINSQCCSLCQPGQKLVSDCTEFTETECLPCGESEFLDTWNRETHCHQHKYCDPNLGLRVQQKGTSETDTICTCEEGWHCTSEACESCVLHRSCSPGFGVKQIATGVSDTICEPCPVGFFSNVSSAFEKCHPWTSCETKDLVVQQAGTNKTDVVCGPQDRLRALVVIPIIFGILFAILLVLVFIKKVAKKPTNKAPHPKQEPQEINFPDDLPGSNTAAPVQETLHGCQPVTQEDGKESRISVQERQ

B1: anti-CD40 11B6-CD40L IgG4 (human CD40L fused via Flex-v1 to the light chain C-terminus) (other)
heavy: EVQLVQSGAEVKKPGASVKISCKASGYSFTGYYMHWVKQAHGQGLEWIGRINPYNGATSYNQNFKDRATLTVDKSTSTAYMELSSLRSEDTAVYYCAREDYVYWGQGTTVTVSSAKTKGPSVFPLAPCSRSTSESTAALGCLVKDYFPEPVTVSWNSGALTSGVHTFPAVLQSSGLYSLSSVVTVPSSSLGTKTYTCNVDHKPSNTKVDKRV[in this place human IgG4 Fc with changes and a few adjoining residues]
light: DVVMTQSPLSLPVTLGQPASISCRSSQSLVHSNGNTYLHWYQQRPGQSPRLLIYKVSNRFSGVPDRFSGSGSGTDFTLKISRVEAEDVGVYFCSQSTHVPWTFGGGTKLEIKRTVAAPSVFIFPPSDEQLKSGTASVVCLLNNFYPREAKVQWKVDNALQSGNSQESVTEQDSKDSTYSLSSTLTLSKADYEKHKVYACEVTHQGLSSPVTKSFNRGECASQTPTNTISVTPTNNSTPTNNSNPKPNPASMQKGDQNPQIAAHVISEASSKTTSVLQWAEKGYYTMSNNLVTLENGKQLTVKRQGLYYIYAQVTFCSNREASSQAPFIASLCLKSPGRFERILLRAANTHSSAKPCGQQSIHLGGVFELQPGASVFVNVTDPSQVSHGTGFTSFGLLKL
notes: also called PAB3470; 11B6-CD40L mAb
[1]
  fold increase in potency for B cell proliferation against the parent mAb: > 1000 fold
  fold more active for MDDC cytokine secretion than Mega sCD40L co-administered with 10 nM anti-CD40 11B6: 100 fold
  fold more robust increase for B cell proliferation than 11B6 mAb co-administered with sCD40L: > 10 fold
[2]
  EC50 of killing of CD40-FAS CHO cells (loss of MTT reduction): 2.5 pM
[3]
  EC50/11B6-CD40L, IL-12 p40: 1 ratio
  EC50/11B6-CD40L, IL-15: 1 ratio
  EC50/11B6-CD40L, TNFα: 1 ratio
[4]
  fold decrease of the off-rate against the parental anti-CD40 11B6 mAb: ~15 fold
